Results published in PubChem BioAssay AID686970 (National Center for Advancing Translational Sciences (NCATS), 2013).
In all, about 360,000 compounds went through this assay and about 6,000 (1.7%) were called active. Inconclusive means that the source gave no clear call. Such entries were picked first, then a sample of the others. Calls come from the whole dose curve; as a rule, active = well fitted cell-killing curve with a large enough effect; inconclusive = small, poorly fitted or top-dose-only effect, or effect the other way; inactive = flat fitted curve, though single readings scatter. Potencies of inconclusive entries are left out as doubtful fits.
Potency is the fitted concentration of half-maximal effect; tags give direction and shape of the fitted curve.

Assay: qHTS for induction of synthetic lethality in tumor cells producing 2HG: qHTS for the HT-1080-NT fibrosarcoma cell line;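 note: NT is the 2HG producing partner of a matched IDH1 knockdown line; nearly all actives have a fitted effect of over 55% in size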;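 for activity, negative = less viability: 0% = DMSO-treated cells and -100% = media-only wells without cells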
Conditions: HT-1080-NT fibrosarcoma viability, CellTiter-Glo ATP luminescence, 48 h; activity, negative = less viability: at 46.1 µM (top of the series) unless noted
How it was run: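 Viability of the 2HG-overproducing fibrosarcoma line after 48 hours of compound exposure at 37 degrees C was determined by luminescence with CellTiter-Glo, and concentration-effect curves were then fitted and categorized.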
For `COc1ccccc1-c1csc(C(O)c2ccc(F)c(F)c2)n1` (stereo unspecified), the activity, negative = less viability was inconclusive: -34.6%.
With `Cc1ccc(C(=O)NC(=S)Nc2ccc(NC(=O)c3cccs3)cc2)cc1[N+](=O)[O-]` the Potency was inconclusive [cytotoxic, single point].
In the case of `O=C(Nc1ccccc1Cl)c1ccc([N+](=O)[O-])o1`, the Potency is reported as inconclusive [cytotoxic, single point].
With `O=C(N/N=C/c1ccc(Br)o1)c1cccnc1` the Potency was inconclusive [rising, partial curve].
With `CCOC(=O)C1CCN(C/C=C/c2ccccc2)CC1` the Potency was “inactive”.
In the case of `CCCn1cc(NC(=O)C2CC(c3cccc(Br)c3)=NO2)cn1` (stereo unspecified), the Potency is reported as inconclusive [cytotoxic, single point].
In the case of `O=C(/C=C/c1ccccc1)c1ccccc1O`, the Potency is reported as inconclusive [cytotoxic, single point].
With `CC(=O)c1nn(-c2cccc(Br)c2)cc1C(=O)c1ccco1` the Potency was “inactive”.
In the case of `CC1CCCC(C)N1C(=O)CN1CCN(c2nc(-c3ccc(F)cc3)cs2)CC1` (stereo unspecified), the Potency is reported as inconclusive [cytotoxic, single point].
For `Nc1n[nH]c2c1C1(CCCCC1)Cc1ccccc1-2`, the Potency was “inactive”.
In the case of `C(=N\Nc1nc2ccccc2[nH]1)/c1c[nH]c2ccccc12`, the Potency is reported as active: 16.4 µM.
In the case of `COc1ccc(C(CNC(=O)c2ccc(-c3ccccc3)cc2)N(C)C)cc1OC` (stereo unspecified), the Potency is reported as active: 18.4 µM.
With `CCOC(=O)N1CCN(Cc2ccc(O)c3ncccc23)CC1` the Potency was active: 20.6 µM.
In the case of `Cc1ccc(C)c(N2CCN(C(=O)C3CCN(S(=O)(=O)c4c(C)noc4C)CC3)CC2)c1`, the Potency is reported as “inactive”.
For `O=C(Nc1cccnc1)c1ccc(Cl)c(S(=O)(=O)N2CCCCCC2)c1`, the Potency was inconclusive [cytotoxic, single point].
For `O=c1[nH]c(C2CCN(S(=O)(=O)c3ccc(F)cc3)CC2)nc2c1nnn2Cc1ccc2c(c1)OCCO2`, the Potency was inconclusive [cytotoxic, single point].
In the case of `O=c1cc(CSc2nc3ccccc3[nH]2)c2ccccc2[nH]1`, the Potency is reported as “inactive”.
With `N#Cc1nc(Cc2ccccc2)oc1NCCCn1ccnc1` the Potency was “inactive”.
In the case of `CC1(C(=O)NS(=O)(=O)C2CC2)CCCN(C(=O)COc2ccccc2)C1` (stereo unspecified), the Potency is reported as inconclusive [rising, single point].
With `NS(=O)(=O)c1ccc(CCNCc2cc(Br)ccc2OCc2ccccc2F)cc1` the Potency was inconclusive [cytotoxic, single point].
In the case of `CS(=O)(=O)N(CC(=O)N1CCN(c2ccccc2F)CC1)c1cc(C(F)(F)F)ccc1Cl`, the Potency is reported as “inactive”.
In the case of `Cc1ccc(C)c(N2CCN(C(=O)C3CCCN(c4ncnc5c4nc4n5CCCCC4)C3)CC2)c1` (stereo unspecified), the Potency is reported as “inactive”.
In the case of `Cc1ccc(/C=N/n2c(C)nc3ccccc3c2=O)o1`, the Potency is reported as “inactive”.
In the case of `CC(=O)C1=C(O)C(=O)N(c2ccc(Br)cc2)C1c1cccc(F)c1` (stereo unspecified), the Potency is reported as inconclusive [cytotoxic, partial curve].
For `O=C(Oc1c(Br)cc([N+](=O)[O-])cc1Br)c1cccnc1`, the Potency was inconclusive [cytotoxic, single point].
With `O=c1c(-c2nnc(SCc3ccc(Cl)cc3)o2)cccn1Cc1ccccc1` the Potency was inconclusive [cytotoxic, single point].
For `CS(=O)(=O)c1ccc2nc(NC(=O)C3CCCCC3)sc2c1`, the Potency was inconclusive [cytotoxic, single point].
For `CCN(CC)C(=S)SCC(=O)c1ccc(F)cc1`, the Potency was inconclusive [cytotoxic, single point].
In the case of `Cc1ccc2c(c1)C1CC(C)(O2)N(c2cccc(C(=O)NC3CCN(Cc4ccccc4)CC3)c2)C(=O)N1` (stereo unspecified), the Potency is reported as inconclusive [cytotoxic, single point].
For `CC(/C=C/c1ccccc1F)=N\NC(=O)c1ccccc1`, the Potency was “inactive”.
For `CC(C)(C)NCc1ccccc1OCc1cccs1`, the Potency was “inactive”.
For `N=c1c2c(ncn1CCN1CCOCC1)Oc1cc(O)ccc1C2c1ccccc1` (stereo unspecified), the Potency was inconclusive [cytotoxic, partial curve].
In the case of `CCOC(=O)N1CCN(C(=O)c2ccc(Cn3c(=S)[nH]c4ccc(Br)cc4c3=O)cc2)CC1`, the Potency is reported as “inactive”.
For `O=C(NCc1ccc(C(F)(F)F)cc1)c1cccc2c(-c3cccnc3)coc12`, the Potency was inconclusive [cytotoxic, partial curve].
For `Cc1ccc(S(=O)(=O)N2[C@H](CC(=O)c3cccs3)OC[C@@H]2C(C)C)cc1`, the Potency was inconclusive [cytotoxic, single point].
In the case of `COc1ccc(-n2c(C)cc(C3=NNC(=NC4CC4)SC3)c2C)cc1`, the Potency is reported as active: 23.1 µM.
With `Cc1cccc(N2CCN(C(=O)C3CCN(c4ncnc5c4nc4n5CCCCC4)CC3)CC2C)c1` (stereo unspecified) the Potency was inconclusive [cytotoxic, partial curve, poor fit].
For `CCCCC1CC1C(=O)Nc1ccc(OC)c(OC)c1` (stereo unspecified), the activity, negative = less viability was inactive: -1.68% [at 9.24 µM].
With `N/C(=N\OC(=O)c1cccc(Cn2cc(C(F)(F)F)ccc2=O)c1)c1ccc(Cl)cc1` the Potency was inconclusive [cytotoxic, single point].
With `CC(C)NC(=S)N/N=C/c1ccc(C(C)(C)C)cc1` the Potency was inconclusive [cytotoxic, single point].
With `O=C1C(NS(=O)(=O)c2ccc(Cl)cc2)=C(N2CCCCC2)C(=O)c2ccccc21` the Potency was inconclusive [cytotoxic, single point].
For `Cc1ccc(-c2cc3nc(C)cc(NCc4ccco4)n3n2)cc1`, the Potency was inconclusive [cytotoxic, single point].
For `Cc1cc2nc(-c3ccc(SCc4ccccc4C#N)nc3)[nH]c2cc1C`, the Potency was inconclusive [cytotoxic, single point].
For `COc1ccc(NC(=O)Cn2cc(C(C)=O)c3ccccc32)cc1`, the Potency was inconclusive [cytotoxic, single point].
In the case of `COc1ccccc1CC(=O)Nc1nc(-c2ccc(F)c(F)c2)cs1`, the Potency is reported as “inactive”.
For `CCn1c(=O)cc(SCC(=O)NCc2ccc(C)cc2)c2ccccc21`, the activity, negative = less viability was inconclusive: 9.98%.
